Measured values published in the supplement of paper PMC12217912.
The other results are listed elsewhere or left out. The full chains were built here from the parent and the listed change. Inactive controls read about 0.05.

B1: TEV protease; numbered along this chain (parent)
chain: MGESLFKGPRDYNPISSSICHLTNESDGHTTSLYGIGFGPFIITNKHLFRRNNGTLVVQSLHGVFKVKDTTTLQQHLVDGRDMIIIRMPKDFPPFPQKLKFREPQREERICLVTTNFQTKSMSSMVSDTSCTFPSGDGIFWKHWIQTKDGQCGSPLVSTRDGFIVGIHSASNFTNTNNYFTSVPKNFMELLTNQEAQQWVSGWRLNADSVLWGGHKVFMVKPEEPFQPVKEATQL

Variants of: B1
Experiment: raw area under fraction-flipped curve 0-4 h after induction (AUC4h, not background-subtracted), DNA-recorder readout of cleavage of the substrate (dimensionless); higher = more cleavage of the substrate by the protease variant
Details: temperature: 34 °C; time window: 0-4 h after rhamnose induction
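Also: Bxb1 expression induced with 0.2% (w/v) L-rhamnose at OD600 near 0.5, cultures sampled hourly, flipped fraction per protease–substrate barcode pair counted by paired-end Illumina sequencing.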

Row | Variant | area with substrate ENLYFQC | area with substrate ENLYFQH | area with substrate ENLYFQL | area with substrate ENLYFQN | area with substrate ENLYFQR | area with substrate ENLYFQS | area with substrate ENLYFQV | area with substrate ENLYFQW | area with substrate ENLYFQG | area with substrate ENLYFQK | area with substrate ENLYFQM | area with substrate ENLYFQP | area with substrate ENLYFQY | area with substrate ENLYFQT | area with substrate ENLYFQF | area with substrate ENLYFQI | area with substrate ENLYFQD | area with substrate ENLYFQQ | area with substrate ENLYFQE
1 | V200N | 0.075 | 0.0568 | 0.0601 | 0.0609 | 0.0665 | 0.0689 | 0.0622 | 0.0699 |  |  |  |  |  |  |  |  |  |  | 
2 | P225I | 0.0965 |  |  |  |  | 0.093 |  |  | 0.0929 | 0.0635 | 0.0803 | 0.0658 |  |  |  |  |  |  | 
3 | G213F | 0.0543 |  | 0.0727 | 0.0496 |  | 0.062 | 0.0509 |  | 0.0754 | 0.0632 | 0.0565 |  | 0.0605 |  |  |  |  |  | 
4 | C111L |  | 0.085 | 0.0618 | 0.07 | 0.0574 | 0.108 | 0.0591 | 0.0665 | 0.106 | 0.0579 | 0.0958 |  |  | 0.0643 |  |  |  |  | 
5 | G63Y |  | 0.0669 |  | 0.0685 | 0.0576 | 0.0833 |  | 0.0656 | 0.0809 | 0.0674 | 0.0746 |  |  | 0.051 | 0.0684 | 0.0502 |  |  | 
6 | S60L |  |  | 0.0336 | 0.0535 | 0.0762 | 0.0928 | 0.0536 |  |  | 0.0613 |  |  |  | 0.0878 | 0.0588 |  |  |  | 
7 | K221Q | 0.118 | 0.0699 | 0.066 | 0.0784 |  | 0.0988 |  | 0.0674 | 0.0824 | 0.0582 | 0.0578 | 0.0564 |  | 0.0751 |  |  | 0.0507 |  | 
8 | F226W | 0.122 | 0.0745 | 0.0615 | 0.0796 | 0.0612 | 0.102 | 0.0721 | 0.0647 | 0.104 | 0.0722 | 0.0795 | 0.0502 | 0.0768 | 0.0671 | 0.0755 | 0.0504 | 0.0901 | 0.06 | 
9 | S123M |  | 0.0847 |  | 0.078 | 0.0674 | 0.112 |  |  | 0.0958 |  |  | 0.111 | 0.0366 | 0.0714 | 0.0779 | 0.057 | 0.0819 |  | 0.0495
10 | L205W | 0.0841 |  | 0.0281 | 0.063 | 0.0563 | 0.092 | 0.0618 |  | 0.0662 |  |  |  | 0.0616 |  |  |  |  |  | 
11 | C20R |  | 0.0532 | 0.0545 | 0.0524 | 0.0352 | 0.0492 | 0.0547 | 0.0552 | 0.0513 | 0.0461 | 0.0447 | 0.0364 | 0.0434 | 0.0283 | 0.0316 | 0.0414 | 0.0438 |  | 0.0546
12 | C20M |  |  | 0.0453 | 0.0799 | 0.0568 | 0.0929 | 0.0572 | 0.0688 |  | 0.0757 | 0.1 |  | 0.0616 | 0.0581 | 0.0469 |  | 0.0579 |  | 
13 | K230V | 0.101 | 0.0926 | 0.0714 | 0.0718 | 0.0675 | 0.101 |  | 0.0587 | 0.0905 | 0.0587 | 0.0795 | 0.0538 | 0.0727 | 0.0719 | 0.0688 | 0.0838 | 0.0785 |  | 
14 | K230E | 0.123 | 0.106 |  | 0.081 | 0.0672 | 0.0939 | 0.0416 | 0.0589 | 0.096 | 0.0632 | 0.0828 |  | 0.0591 | 0.0688 |  |  | 0.0902 | 0.0771 | 
15 | F187E | 0.0673 | 0.0681 |  |  | 0.0428 | 0.0539 |  | 0.0514 | 0.0568 | 0.0665 | 0.0491 | 0.0438 | 0.0229 | 0.0438 | 0.0865 | 0.0511 | 0.0544 | 0.0416 | 
16 | F187I | 0.11 | 0.0938 | 0.0629 | 0.0609 | 0.063 | 0.105 | 0.0507 |  |  | 0.0616 | 0.101 |  |  | 0.0664 | 0.0723 | 0.0876 | 0.071 |  | 0.071
17 | E231T | 0.101 |  | 0.0586 |  | 0.0778 | 0.0958 | 0.0659 | 0.0679 | 0.0942 | 0.0529 | 0.104 | 0.0617 |  | 0.0761 |  | 0.0565 | 0.0703 | 0.065 | 0.0617
18 | E231H |  |  | 0.0694 | 0.0775 | 0.0571 | 0.0974 |  | 0.0637 | 0.104 | 0.0676 |  |  |  | 0.0626 |  | 0.0651 |  |  | 

Row | Variant | area with substrate ENLYFQC | area with substrate ENLYFQH | area with substrate ENLYFQL | area with substrate ENLYFQN | area with substrate ENLYFQR | area with substrate ENLYFQS | area with substrate ENLYFQV | area with substrate ENLYFQW | area with substrate ENLYFQG | area with substrate ENLYFQK | area with substrate ENLYFQM | area with substrate ENLYFQP | area with substrate ENLYFQY | area with substrate ENLYFQT | area with substrate ENLYFQF | area with substrate ENLYFQI | area with substrate ENLYFQD | area with substrate ENLYFQQ | area with substrate ENLYFQE
19 | M219C | 0.0709 |  | 0.0585 |  | 0.055 | 0.102 | 0.0613 | 0.0651 | 0.0944 |  | 0.0963 |  |  |  |  | 0.07 |  |  | 
20 | V217A | 0.0931 |  |  | 0.082 |  | 0.0766 |  | 0.0613 | 0.0985 |  | 0.0341 |  |  |  |  |  |  |  | 
21 | F218P | 0.0136 |  | 0.0676 |  | 0.0586 | 0.0598 |  | 0.0638 |  | 0.0542 | 0.0541 |  | 0.0571 | 0.0615 | 0.0622 |  |  |  | 
22 | F180V | 0.0514 |  | 0.0533 | 0.0554 | 0.0338 | 0.0585 |  | 0.0286 | 0.0639 | 0.0807 | 0.0702 |  | 0.0512 | 0.055 | 0.052 | 0.0425 |  |  | 
23 | N186M | 0.098 |  |  | 0.0828 |  | 0.101 | 0.0652 | 0.0628 |  | 0.0451 | 0.0763 | 0.0798 | 0.0572 | 0.0716 |  |  |  |  | 
24 | P222S | 0.0882 |  | 0.0551 | 0.0709 | 0.0619 | 0.0925 | 0.064 | 0.0503 |  | 0.0572 | 0.0677 | 0.0494 |  | 0.0744 |  |  |  | 0.0573 | 
25 | Q194R |  | 0.0799 | 0.0672 | 0.0746 | 0.0517 | 0.103 | 0.067 |  |  |  | 0.0784 | 0.0635 | 0.0835 | 0.0795 |  | 0.0706 |  |  | 
26 | V67L |  |  |  |  | 0.0562 | 0.0969 | 0.0485 | 0.0719 | 0.0834 | 0.034 | 0.0823 |  | 0.0664 | 0.0619 |  | 0.0481 | 0.0571 |  | 0.0738
27 | S201W | 0.088 | 0.0735 | 0.066 |  | 0.0583 | 0.0795 |  | 0.0498 | 0.0831 | 0.076 | 0.0725 | 0.0537 | 0.0599 | 0.0611 | 0.0742 | 0.0587 |  | 0.0648 | 
28 | T71W |  | 0.0581 | 0.0675 | 0.0711 | 0.051 | 0.0831 | 0.0842 | 0.0644 |  |  |  |  |  | 0.0718 |  | 0.0564 |  | 0.0588 | 
29 | A196L | 0.107 | 0.099 | 0.0642 | 0.0562 | 0.0605 | 0.116 | 0.0623 | 0.0621 | 0.0531 | 0.0593 | 0.114 | 0.0493 | 0.0811 | 0.0748 | 0.0903 | 0.0614 | 0.0948 |  | 
30 | T181L | 0.0605 |  | 0.0595 | 0.0561 | 0.0603 | 0.0603 |  | 0.0548 | 0.0703 |  |  | 0.0521 |  | 0.0604 |  |  |  | 0.0155 | 
31 | T181M | 0.069 | 0.0677 | 0.0494 | 0.0647 |  | 0.0733 |  | 0.0688 | 0.0739 | 0.0688 | 0.0603 | 0.0465 | 0.0292 | 0.0506 | 0.0588 | 0.0562 |  |  | 
32 | Q197K |  | 0.0642 | 0.0475 | 0.0618 |  | 0.0916 | 0.0669 |  |  | 0.0542 | 0.0919 | 0.035 | 0.0603 | 0.0565 |  |  |  |  | 
33 | F163V |  |  |  | 0.0802 | 0.0795 | 0.102 | 0.0612 | 0.0684 |  |  | 0.0788 |  |  | 0.0686 |  |  |  |  | 
34 | V220I | 0.0994 |  |  | 0.0929 |  | 0.104 | 0.0659 |  |  |  |  | 0.0536 | 0.0644 | 0.0822 |  | 0.0965 |  |  | 
35 | W199H |  | 0.047 | 0.056 | 0.0741 | 0.0569 | 0.0635 |  | 0.0496 | 0.0591 | 0.0725 | 0.0646 | 0.0624 |  | 0.0608 |  | 0.0639 |  |  | 
